Measurements published in the supplement of paper PMC11876631.
Positions count from the first letter of the chain named. Names may count otherwise. ± gives the standard deviation of the averaged measurements. Laboratory Escherichia coli strains with one amino-acid change in an essential protein, pooled on minimal glucose agar with carbenicillin or gentamicin at twice the control MIC (plus kanamycin and chloramphenicol for the plasmids), 48 h. Fold change of barcode share against drug-free plates; higher = less susceptible. Active = above 20 in both replicates (the paper's putatively resistant). '<' = one read or none on drug, '>' = one read or none on a drug-free plate. Shares are relative, so most strains fall below 1 when a few take over. Listed are strains with at least 15 reads on both drug-free plates, and hits; most hits rest on fewer reference reads. Replicate rank correlation about 0.5. Edits are read from barcodes.

B1: dnaC L131A (protein)
chain: MKNVGDLMQRLQKMMPAHIKPAFKTGEELLAWQKEQGAIRSAALERENRAMKMQRTFNRSGIRPLHQNCSFENYRVECEGQMNALSKARQYVEEFDGNIASFIFSGKPGTGKNHLAAAICNELLLRGKSVAIITVADIMSAMKDTFRNSGTSEEQLLNDLSNVDLLVIDEIGVQTESKYEKVIINQIVDRRSSSKRPTGMLTNSNMEEMTKLLGERVMDRMRLGNSLWVIFNWDSYRSRVTGKEY
B2: dnaC V135W (protein)
chain: B1 chain with A131L, V135W
B3: dnaC V135Q (protein)
chain: B1 chain with A131L, V135Q
B4: dnaC L131W (protein)
chain: B1 chain with A131W
B5: dnaC M142A (protein)
chain: B1 chain with A131L, M142A
B6: adk L6A (protein)
chain: MRIILAGAPGAGKGTQAQFIMEKYGIPQISTGDMLRAAVKSGSELGKQAKDIMDAGKLVTDELVIALVKERIAQEDCRNGFLLDGFPRTIPQADAMKEAGINVDYVLEFDVPDELIVDRIVGRRVHAPSGRVYHVKFNPPKVEGKDDVTGEELTTRKDDQEETVRKRLVEYHQMTAPLIGYYSKEAEAGNTKYAKVDGTKPVAEVRADLEKILG
B7: adk L6Q (protein)
chain: B6 chain with A6Q
B8: dnaA V51A (protein)
chain: MSLSLWQQCLARLQDELPATEFSMWIRPLQAELSDNTLALYAPNRFVLDWARDKYLNNINGLLTSFCGADAPQLRFEVGTKPVTQTPQAAVTSNVAAPAQVAQTQPQRAAPSTRSGWDNVPAPAEPTYRSNVNVKHTFDNFVEGKSNQLARAAARQVADNPGGAYNPLFLYGGTGLGKTHLLHAVGNGIMARKPNAKVVYMHSERFVQDMVKALQNNAIEEFKRYYRSVDALLIDDIQFFANKERSQEEFFHTFNALLEGNQQIILTSDRYPKEINGVEDRLKSRFGWGLTVAIEPPELETRVAILMKKADENDIRLPGEVAFFIAKRLRSNVRELEGALNRVIANANFTGRAITIDFVREALRDLLALQEKLVTIDNIQKTVAEYYKIKVADLLSKRRSRSVARPRQMAMALAKELTNHSLPEIGDAFGGRDHTTVLHACRKIEQLREESHDIKEDFSNLIRTLSS

These proteins were tested against Escherichia coli (laboratory strain) (assay: barcode share on antibiotic plates over drug-free plates; higher = less susceptible). Conditions: antibiotic: carbenicillin; 2× MIC (3.1 µg/mL).
Procedure: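 A pool of E. coli strains, each edited to carry one amino-acid change in an essential protein, was grown for 48 h on minimal glucose agar with or without antibiotic; strain barcodes were sequenced; mean of two replicates.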

| Protein | fold change of barcode share |
| --- | --- |
| B1 | 0.41 ± 0.014 |
| B2 | 0.354 ± 0.048 |
| B3 | 0.256 ± 0.15 |
| B4 | 0.462 ± 0.2 |
| B5 | 0.268 ± 0.012 |
| B6 | 0.518 ± 0.25 |
| B7 | 0.714 ± 0.55 |
| B8 | 0.623 ± 0.37 |

Same assay, conditions: antibiotic: gentamicin; 2× MIC (MIC 0.45 µg/mL)

| Protein | fold change of barcode share |
| --- | --- |
| B1 | < 0.00524 |
| B2 | < 0.00614 |
| B3 | < 0.00539 |
| B4 | < 0.00675 |
| B5 | 0.0191 ± 0.012 |
| B6 | < 0.0025 |
| B7 | 0.00835 ± 0.0053 |
| B8 | 0.0292 ± 0.036 |
